According to a compilation of properties of binary mixtures (doi:10.1016/j.fluid.2019.112324):
The densities may have been worked out from excess volumes.

Test: xn = mol fraction of the nth substance listed
Settings: 100 kPa

With `CCCC(C)O` (configuration not stated) + CCCCCC[n+]1ccn(C)c1.O=[N+]([O-])[O-] as the compound, how does the mass density (293.15 K, x2 = 0) read?
Its mass density is 809.3 kg/m3.

What about the mass density (298.15 K, x2 = 0) of the same compound?
The mass density was 805.3 kg/m3.

What about the mass density (303.15 K, x2 = 0) of the same compound?
The mass density was 801.2 kg/m3.

And the mass density (308.15 K, x2 = 0)?
The mass density was 797 kg/m3.

What about the mass density (313.15 K, x2 = 0) of the same compound?
Its mass density is 792.7 kg/m3.

What about the mass density (318.15 K, x2 = 0) of the same compound?
The mass density was 788.4 kg/m3.

Which mass density (293.15 K, x1 = 0.0814) does the source give for `CCCCCC[n+]1ccn(C)c1.O=[N+]([O-])[O-]` + CCCC(C)O here?
The mass density was 856 kg/m3.

What about the mass density (293.15 K, x1 = 0.1609) of the same compound?
Its mass density is 895.7 kg/m3.

What about the mass density (293.15 K, x1 = 0.3491) of the same compound?
Its mass density is 971.2 kg/m3.

And the mass density (293.15 K, x1 = 0.4393)?
Its mass density is 1000.4 kg/m3.

What about the mass density (293.15 K, x1 = 0.5608) of the same compound?
The mass density was 1034.5 kg/m3.

And the mass density (293.15 K, x1 = 0.6509)?
The mass density was 1056.6 kg/m3.

And the mass density (293.15 K, x1 = 0.9393)?
Its mass density is 1111.5 kg/m3.

And the mass density (293.15 K, x1 = 1)?
Its mass density is 1120.3 kg/m3.

And the mass density (298.15 K, x1 = 0.0814)?
Its mass density is 851.8 kg/m3.

What about the mass density (298.15 K, x1 = 0.2408) of the same compound?
The mass density was 926.1 kg/m3.

What about the mass density (298.15 K, x1 = 0.3491) of the same compound?
Its mass density is 966.8 kg/m3.

And the mass density (298.15 K, x1 = 0.4393)?
Its mass density is 996.1 kg/m3.

And the mass density (298.15 K, x1 = 0.5608)?
The mass density was 1030.4 kg/m3.

And the mass density (298.15 K, x1 = 0.6509)?
The mass density was 1052.7 kg/m3.

And the mass density (298.15 K, x1 = 0.7401)?
The mass density was 1072.3 kg/m3.

What about the mass density (298.15 K, x1 = 0.8508) of the same compound?
The mass density was 1093.5 kg/m3.

What about the mass density (298.15 K, x1 = 0.9393) of the same compound?
The mass density was 1108.4 kg/m3.

What about the mass density (298.15 K, x1 = 1) of the same compound?
The mass density was 1117.5 kg/m3.

What about the mass density (303.15 K, x1 = 0.1609) of the same compound?
The mass density was 886.9 kg/m3.

And the mass density (303.15 K, x1 = 0.2408)?
Its mass density is 921.6 kg/m3.

And the mass density (303.15 K, x1 = 0.3491)?
The mass density was 962.2 kg/m3.

And the mass density (303.15 K, x1 = 0.4393)?
The mass density was 991.7 kg/m3.

And the mass density (303.15 K, x1 = 0.5608)?
Its mass density is 1026.1 kg/m3.

And the mass density (303.15 K, x1 = 0.6509)?
Its mass density is 1048.5 kg/m3.

And the mass density (303.15 K, x1 = 0.8508)?
Its mass density is 1089.7 kg/m3.

And the mass density (303.15 K, x1 = 0.9393)?
The mass density was 1104.9 kg/m3.

And the mass density (303.15 K, x1 = 1)?
The mass density was 1114.3 kg/m3.

What about the mass density (308.15 K, x1 = 0.0814) of the same compound?
Its mass density is 843.2 kg/m3.

And the mass density (308.15 K, x1 = 0.1609)?
The mass density was 882.5 kg/m3.

What about the mass density (308.15 K, x1 = 0.2408) of the same compound?
The mass density was 917 kg/m3.

And the mass density (308.15 K, x1 = 0.3491)?
Its mass density is 957.7 kg/m3.

And the mass density (308.15 K, x1 = 0.4393)?
Its mass density is 987.2 kg/m3.

What about the mass density (308.15 K, x1 = 0.5608) of the same compound?
The mass density was 1021.8 kg/m3.

What about the mass density (308.15 K, x1 = 0.6509) of the same compound?
Its mass density is 1044.3 kg/m3.

What about the mass density (308.15 K, x1 = 0.8508) of the same compound?
The mass density was 1086 kg/m3.

What about the mass density (308.15 K, x1 = 0.9393) of the same compound?
The mass density was 1101.4 kg/m3.

And the mass density (308.15 K, x1 = 1)?
Its mass density is 1111.1 kg/m3.

And the mass density (313.15 K, x1 = 0.1609)?
The mass density was 877.6 kg/m3.

And the mass density (313.15 K, x1 = 0.2408)?
Its mass density is 912.1 kg/m3.

And the mass density (313.15 K, x1 = 0.3491)?
The mass density was 952.9 kg/m3.

What about the mass density (313.15 K, x1 = 0.4393) of the same compound?
Its mass density is 982.5 kg/m3.

What about the mass density (313.15 K, x1 = 0.5608) of the same compound?
The mass density was 1017.2 kg/m3.

What about the mass density (313.15 K, x1 = 0.6509) of the same compound?
The mass density was 1039.9 kg/m3.

What about the mass density (313.15 K, x1 = 0.7401) of the same compound?
The mass density was 1060 kg/m3.

And the mass density (313.15 K, x1 = 0.8508)?
Its mass density is 1082.1 kg/m3.

What about the mass density (313.15 K, x1 = 0.9393) of the same compound?
The mass density was 1097.9 kg/m3.

And the mass density (313.15 K, x1 = 1)?
Its mass density is 1107.8 kg/m3.

And the mass density (318.15 K, x1 = 0.0814)?
The mass density was 834 kg/m3.

What about the mass density (318.15 K, x1 = 0.1609) of the same compound?
The mass density was 872.8 kg/m3.

And the mass density (318.15 K, x1 = 0.2408)?
The mass density was 907.3 kg/m3.

What about the mass density (318.15 K, x1 = 0.3491) of the same compound?
Its mass density is 948.2 kg/m3.

And the mass density (318.15 K, x1 = 0.4393)?
Its mass density is 977.9 kg/m3.

And the mass density (318.15 K, x1 = 0.5608)?
The mass density was 1012.9 kg/m3.

And the mass density (318.15 K, x1 = 0.6509)?
Its mass density is 1035.7 kg/m3.

What about the mass density (318.15 K, x1 = 0.7401) of the same compound?
Its mass density is 1056 kg/m3.

What about the mass density (318.15 K, x1 = 0.8508) of the same compound?
Its mass density is 1078.5 kg/m3.

What about the mass density (318.15 K, x1 = 0.9393) of the same compound?
The mass density was 1094.6 kg/m3.

What about the mass density (318.15 K, x1 = 1) of the same compound?
Its mass density is 1104.7 kg/m3.

What about the mass density (323.15 K, x1 = 0.1609) of the same compound?
Its mass density is 868 kg/m3.

What about the mass density (323.15 K, x1 = 0.2408) of the same compound?
Its mass density is 902.5 kg/m3.

What about the mass density (323.15 K, x1 = 0.3491) of the same compound?
Its mass density is 943.5 kg/m3.

What about the mass density (323.15 K, x1 = 0.4393) of the same compound?
Its mass density is 973.3 kg/m3.

What about the mass density (323.15 K, x1 = 0.5608) of the same compound?
The mass density was 1008.5 kg/m3.

And the mass density (323.15 K, x1 = 0.7401)?
Its mass density is 1052 kg/m3.

What about the mass density (323.15 K, x1 = 0.8508) of the same compound?
The mass density was 1074.8 kg/m3.

What about the mass density (323.15 K, x1 = 0.9393) of the same compound?
The mass density was 1091.2 kg/m3.
